PubChem BioAssay AID624296 (National Center for Advancing Translational Sciences (NCATS), 2012)
Out of some 350,000 compounds screened, about 9,900 (2.8%) were called active. The inconclusive results got no clear call from the source; some entries with a clear call stand among them for comparison. Calls follow the shape of the dose curve; as a rule, active = well fitted activation curve with a large enough effect; inconclusive = small, poorly fitted or top-dose-only effect; inactive = no such curve, though single readings can be large or run the other way. No potency is given beside an inconclusive call; the fits are too rough.
Potency is read from the fitted curve at half-maximal effect; tags tell the direction and shape of the fitted curve.

Test: A quantitative high throughput screen for small molecules that induce DNA re-replication in MCF 10a normal breast cells. Also: nearly all actives have a fitted effect of over 50% in size.
Details: MCF 10A DNA re-replication, Hoechst nuclear intensity, 48 h; series mostly up to 46.1 µM
With `Cc1ccc(N(C)S(=O)(=O)c2cccc(C(=O)NC3=NCCS3)c2)cc1` the Potency was inconclusive [activator, single point].
In the case of `COc1ccc(C(C(=O)NC2CCCCC2)N(C(=O)c2snc(C(N)=O)c2N)c2ccc(OC)cc2OC)cc1` (configuration not stated), the Potency is reported as inconclusive [activator, partial curve, poor fit].
For `COc1ccc(NC(=S)NN2CCOCC2)cc1OC`, the Potency was “inactive”.
In the case of `N#Cc1c(NC(=O)/C=C/c2ccco2)sc2c1CCCC2`, the Potency is reported as inconclusive [activator, single point].
With `COc1ccc(-c2nc3ccc(C(=O)NCC(OC)OC)cc3nc2-c2ccc(OC)cc2)cc1` the Potency was inconclusive [activator, single point].
For `COc1ccc(/C=C/C2=CC(C)(C)NC(=S)N2)c(OC)c1`, the Potency was inconclusive [activator, single point].
For `Cc1ccc(-c2cc(-c3ccc(Cl)cc3)c(C#N)c(N)n2)o1`, the Potency was active: 2.91 µM.
With `CCOc1cc(/C=N/NC(N)=O)cc(Br)c1OCC(=O)Nc1ccccc1C` the Potency was inconclusive [activator, partial curve].
With `Cc1ccc(N=C2NC(=O)/C(=C/c3cccnc3)S2)c(C)c1` the Potency was inconclusive [activator, single point].
For `CCC(NC(=O)Nc1nnc(C(F)(F)F)s1)(C(F)(F)F)C(F)(F)F`, the Potency was inconclusive [activator, full curve, poor fit].
In the case of `O=C(Nc1nnc(C2CC2)s1)c1cc(-c2ccccc2)nn1-c1ccccc1`, the Potency is reported as inconclusive [activator, single point].
With `CCC(C)(C)NC(=O)CN(C(=O)CCC(=O)Nc1nccs1)c1ccc2c(c1)OCO2` the Potency was inconclusive [activator, partial curve, poor fit].
In the case of `CCC(C(=O)Nc1ccc(N2CCOCC2)c(S(=O)(=O)Nc2ccccc2OC)c1)c1ccccc1` (configuration not stated), the Potency is reported as inconclusive [activator, partial curve, poor fit].
For `CC(C)(C)N(Cc1ccccc1)C(=O)COC(=O)CCN1C(=O)C2CC=CCC2C1=O` (configuration not stated), the Potency was “inactive”.
For `COc1ccc(CCN(C)C2CCCN(C(=O)c3sccc3C)C2)cc1OC` (configuration not stated), the Potency was inconclusive [activator, single point].
With `COc1ccc(-c2cc(C(=O)N(C)CC(=O)Nc3ccccc3Cl)c3ccccc3n2)cc1OC` the Potency was inconclusive [activator, partial curve, poor fit].
In the case of `COc1ccc(S(=O)(=O)N2CCOCC2)cc1NC(=O)CO/N=C/c1ccccc1OC(F)F`, the Potency is reported as “inactive”.
In the case of `CCOC(=O)c1c(C)[nH]c(C)c1C(=O)CSc1nc2ccccc2c(=O)n1-c1ccc(Cl)cc1`, the Potency is reported as inconclusive [activator, partial curve, poor fit].
In the case of `CSc1ccccc1OCc1cc(C(=O)N2CCN3CCCC3C2)no1` (configuration not stated), the Potency is reported as inconclusive [activator, partial curve, poor fit].
For `CCOC(=O)c1c(NC(=O)c2ccccc2C)sc2c1CC(C)(C)OC2`, the Potency was inconclusive [activator, single point].
For `CCN=C(Nc1ccc2c(c1)OCO2)SC1CC(=O)N(c2ccc(OC)cc2)C1=O` (configuration not stated), the Potency was “inactive”.
For `O=C(NC(=S)NCc1ccccc1)c1ccccc1`, the Potency was “inactive”.
With `N#C/C(=C\c1c(N2CCOCC2)nc2ccccn2c1=O)S(=O)(=O)c1ccccc1` the Potency was inconclusive [activator, single point].
For `Cc1c(N=C2C=CC(=O)c3ccccc32)c(=O)n(-c2ccccc2)n1C`, the Potency was inconclusive [activator, single point].
In the case of `Cn1ncc(N2CCN(S(=O)(=O)c3ccc(Br)cc3)CC2)c(Cl)c1=O`, the Potency is reported as inconclusive [activator, single point].
For `COc1ccc(-c2ccc(C#N)c(OC(=O)c3c(Cl)cccc3Cl)n2)cc1`, the Potency was inconclusive [activator, partial curve].
With `COc1ccc(-c2nc(N)ncc2-c2ccc(OC)c(OC)c2)c(O)c1` the Potency was “inactive”.
In the case of `CCOC(=O)c1c(NC(=O)COc2ncnc3ccccc23)sc(C(C)=O)c1C`, the Potency is reported as inconclusive [activator, single point].
With `CCC1C(O)=C(c2ccccn2)C(=N)N1c1ccccc1` (configuration not stated) the Potency was active: 13 µM.
In the case of `CCc1c(O)c(/C(C)=N\O)c(=O)n(-c2ccccc2)c1-c1ccccc1`, the Potency is reported as inconclusive [activator, partial curve, poor fit].
With `CSc1cccc(NC(=S)N(Cc2ccc(C)cc2)Cc2ccccn2)c1` the Potency was inconclusive [activator, partial curve, poor fit].
In the case of `CC(=O)c1ccc(NC(=O)COC(=O)c2ccccc2Sc2ccccc2C#N)cc1`, the Potency is reported as inconclusive [activator, single point].
In the case of `CC1CN(CCS(=O)(=O)c2cc(Cl)ccc2Cl)CC(C)O1` (configuration not stated), the Potency is reported as active: 2.91 µM.
In the case of `CCCCN1C(=O)C(=O)N(CC(=O)N2CCN(c3ccccc3)CC2)C1=O`, the Potency is reported as inconclusive [activator, full curve, poor fit].
For `N#Cc1ccccc1OCC(=O)OCC(=O)NC1CCCC1`, the Potency was inconclusive [activator, single point].
For `COc1cccc(C2Nc3ccc4ccccc4c3C3=C2C(=O)CCC3)c1O` (configuration not stated), the Potency was inconclusive [activator, single point].
With `CSc1ccc(CNC(=O)Cc2ccc(NC(=O)C3=C(C)OCCS3)cc2)cc1` the Potency was inconclusive [activator, single point].
In the case of `FC(F)(F)c1nnc2ccc(NCc3ccccc3)nn12`, the Potency is reported as “inactive”.
In the case of `Cc1ccc(NC2CC(=O)N(CCc3ccccc3)C2=O)cc1` (configuration not stated), the Potency is reported as “inactive”.
In the case of `O=C1CN(C(=O)CCCc2c[nH]c3ccccc23)c2ccccc2N1`, the Potency is reported as active: 15.8 µM.
In the case of `COc1c(-c2ccc(O)cc2)oc2cc(O)cc(O)c2c1=O`, the Potency is reported as “inactive”.
With `CCN(CC(=O)NCCc1ccccc1)S(=O)(=O)c1ccc(Br)cc1` the Potency was inconclusive [activator, single point].
